Laboratory results published in PMC4336329 (PLoS ONE, 2015).
In all, about 310,000 compounds went through this assay and about 14,000 (4.5%) showed an effect of 50% or more. The effect is printed as a negative number. The list shows a part of the results.

Molecular target: human ether-à-go-go-related gene (hERG) potassium channel (human, UniProt Q12809)
Test: primary screen, population patch clamp on CHO cells stably expressing hERG
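Note: peak tail current of the secondary pulse compared with the same well before compound.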

Sequence of human ether-à-go-go-related gene (hERG) potassium channel (Q12809 whole entry, looked up): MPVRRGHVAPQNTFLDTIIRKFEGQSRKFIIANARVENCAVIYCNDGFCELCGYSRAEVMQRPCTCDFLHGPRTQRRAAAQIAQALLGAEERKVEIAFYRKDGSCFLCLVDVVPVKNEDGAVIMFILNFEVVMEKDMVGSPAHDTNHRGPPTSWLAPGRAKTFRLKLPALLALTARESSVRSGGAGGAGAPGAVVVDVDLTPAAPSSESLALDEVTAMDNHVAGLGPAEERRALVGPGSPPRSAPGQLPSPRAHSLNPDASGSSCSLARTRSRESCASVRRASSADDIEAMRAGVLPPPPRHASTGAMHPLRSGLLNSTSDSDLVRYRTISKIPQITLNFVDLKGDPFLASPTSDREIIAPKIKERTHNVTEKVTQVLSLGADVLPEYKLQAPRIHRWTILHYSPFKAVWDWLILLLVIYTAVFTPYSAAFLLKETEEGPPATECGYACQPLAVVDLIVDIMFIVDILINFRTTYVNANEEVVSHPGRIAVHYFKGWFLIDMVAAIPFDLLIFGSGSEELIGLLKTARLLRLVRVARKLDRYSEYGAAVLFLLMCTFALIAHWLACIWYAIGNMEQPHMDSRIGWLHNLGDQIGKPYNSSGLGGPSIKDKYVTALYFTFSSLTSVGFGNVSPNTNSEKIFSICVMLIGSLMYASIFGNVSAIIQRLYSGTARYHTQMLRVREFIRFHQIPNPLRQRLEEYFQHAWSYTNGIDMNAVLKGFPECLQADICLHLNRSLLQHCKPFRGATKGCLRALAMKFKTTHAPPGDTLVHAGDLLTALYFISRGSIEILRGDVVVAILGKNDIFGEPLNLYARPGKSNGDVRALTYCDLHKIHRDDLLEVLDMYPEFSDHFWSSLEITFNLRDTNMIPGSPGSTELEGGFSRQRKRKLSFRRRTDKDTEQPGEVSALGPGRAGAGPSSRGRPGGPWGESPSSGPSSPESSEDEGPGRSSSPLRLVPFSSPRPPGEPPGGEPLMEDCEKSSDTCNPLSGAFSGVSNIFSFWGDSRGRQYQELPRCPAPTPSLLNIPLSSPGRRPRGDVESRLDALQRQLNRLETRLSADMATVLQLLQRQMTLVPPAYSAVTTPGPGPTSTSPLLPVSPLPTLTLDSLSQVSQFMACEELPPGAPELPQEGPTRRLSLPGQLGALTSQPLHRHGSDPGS

| SMILES | hERG current change (%, negative = inhibition) at 10uM [%] |
| --- | --- |
| Cc1ccc(CC(CC(=O)Nc2cccc(C(F)(F)F)c2)C(=O)O)cc1 (stereo not shown) | 18 |
| COC(=O)c1ccc(C2C(C(=O)c3cc4ccccc4o3)=C(O)C(=O)N2CCCN(C)C)cc1 (stereo not shown) | 11.4 |
| COc1ccc(-c2[nH]c(-c3ccccc3)nc2SCC(=O)NCc2ccco2)cc1OC | 3.7 |
| CNS(=O)(=O)c1ccc2nc(NC(=O)c3ccc(N4C(=O)CCC4=O)cc3)sc2c1 | 37.6 |
| CCCc1ccc(OCc2ccccc2)c2c(=O)cc(C(=O)OCC)oc12 | 10.9 |
| CC(C)CC(=O)Nc1ccc(F)c(Cl)c1 | -19.5 |
| COc1ccc(C2OC(=O)CC2C(=O)NCc2ccc(C)cc2)cc1OC (stereo not shown) | -16 |
| COCCn1c(-c2ccc(C#N)cc2)nc2c1c(=O)[nH]c(=O)n2Cc1ccccc1 | -33.9 |
| Cc1cc(CSc2ccccc2)ccc1NC(=O)c1ccc(CN2CCOCC2)cc1 | 2.01 |
| COc1ccccc1CNc1cc(C)ccc1C | 2.75 |
| Cc1cc(C)c(N(C(=O)CN2C(=O)c3ccccc3S2(=O)=O)C(C(=O)NCC2CCCO2)c2ccc(F)cc2)c(C)c1 (stereo not shown) | 1.66 |
| Cc1ccccc1NC(=O)COC(=O)c1cccnc1 | 17.1 |
| Nc1c(S(=O)(=O)c2cccs2)c2nc3ccccc3nc2n1Cc1ccccc1 | -3.1 |
| CCOC(=O)NC(=O)CSc1nnc(C2CC2)n1Cc1ccco1 | 14.8 |
| OCc1c[nH]c2ccccc12 | 9.02 |
| COc1cc(NS(=O)(=O)c2ccc(NC(C)=O)cc2)nc(OC)n1 | 5.7 |
| O=C(NCc1ccccc1Cl)C1CCN(S(=O)(=O)c2cccs2)CC1 | -63.4 |
| COc1ccc(C(=O)N2CCN=C2SCc2cccnc2)c(OC)c1 | -3.09 |
| CC1(c2ccc3c(c2)OCO3)NC(=O)N(CC(=O)NCCC2=CCCCC2)C1=O (stereo not shown) | -6.08 |
| N#Cc1ccsc1NC(=O)c1ccccn1 | -4.67 |
| CCOc1ccc(S(=O)(=O)N2CCCCC2)cc1NC(=O)Cc1ccccc1 | -12.7 |
| COc1ccc(CCNC(=O)CN(C)S(=O)(=O)c2cccs2)cc1OC | -1.23 |

| SMILES | hERG current change (%, negative = inhibition) at 10uM [%] |
| --- | --- |
| Cc1nc(NCCc2ccccc2)sc1C(=O)O | 28.8 |
| COc1ccccc1NC(=O)CSc1nnc(CNC(=O)c2ccccc2F)o1 | 1.06 |
| CC(C(=O)Nc1cccnc1)c1ccc([N+](=O)[O-])cc1 (stereo not shown) | -7.49 |
| O=C(CNC(=O)c1ccccc1)OCCOc1cccc(Cl)c1 | -2.54 |
| COc1cc(NC2c3ncccc3C(=O)N2Cc2ccco2)cc(OC)c1 (stereo not shown) | -0.0378 |
| O=C(Nc1cccc(F)c1)C1CCCN1S(=O)(=O)c1cccc2cccnc12 (stereo not shown) | -18 |
| CC(=O)Nc1ccc(OCC(=O)NCCc2ccc(Cl)cc2)cc1 | -9.6 |
| O=C(N=Nc1c(O)[nH]c2ccc([N+](=O)[O-])cc12)c1ccccc1Cl | 6.89 |
| CCOc1cc(C2C(C(=O)O)c3cc(OCC)c(OCC)cc3C(=O)N2C)ccc1O (stereo not shown) | 2.69 |
| CCCN1CCN(C(=O)c2ccc3nc(CC)c(CC)nc3c2)CC1 | 1.54 |
| O=C(NCc1ccccc1)N1CCC(c2nc3ccccc3[nH]2)CC1 | -15.1 |
| CC1CC(C)(C)N(C(=O)CN2C(=O)c3ccccc3C2=O)c2ccccc21 (stereo not shown) | 4.6 |
| CC(=O)Nc1cccc(Oc2cnc3ccccc3n2)c1 | -3.08 |
| Cc1c(S(=O)(=O)N2CCCC(C)C2)c(=O)n(C)c(=O)n1C (stereo not shown) | -2.74 |
| COc1cccc(C(=O)COc2ccc3c(C)cc(=O)oc3c2)c1 | -70.8 |
| COc1ccccc1CNC(=O)C1CCCN1S(=O)(=O)c1cccc2cccnc12 (stereo not shown) | -12.5 |
| O=C(NCCCN1CCCC1)c1ccc2c(c1)N(Cc1ccccc1F)C(=O)c1ccccc1S2=O (stereo not shown) | -22.5 |
| Cc1ccccc1Oc1cc(-n2ncc(Cl)c(Cl)c2=O)ncn1 | 6.67 |
| COc1ccc(N2CCN(C(=O)CCc3ccc(S(=O)(=O)NCC(C)C)cc3)CC2)cc1 | -57.1 |
| CN(C)S(=O)(=O)c1cc(NC(=O)COC(=O)Cc2ccc(Cl)cc2Cl)ccc1Cl | -4.97 |
| Oc1ccccc1CNc1ccc(Br)cn1 | -22.9 |
| Clc1ccc(OCc2cc(-c3ccccc3)no2)cc1Cl | 12.9 |

| SMILES | hERG current change (%, negative = inhibition) at 10uM [%] |
| --- | --- |
| O=C(N/N=C/c1ccc([N+](=O)[O-])cc1)c1cc(C2CC2)[nH]n1 | -14.8 |
| COc1cccc(-c2cc(C(=O)NCc3ccco3)no2)c1 | 6.68 |
| Cc1ccc(-c2c3c(=O)n(C)c(=O)n(C)c3cn2N2CCOCC2)cc1 | -40 |
| COc1ccc(NC(=O)CN(c2ccc(C)cc2)S(C)(=O)=O)c(OC)c1 | -10.3 |
| Cc1ccc(S(=O)(=O)NCCNc2ccccc2[N+](=O)[O-])cc1 | -16.1 |
| CC(=O)C1=C(C)Nc2ncnn2C1c1ccc(F)cc1 (stereo not shown) | 18.6 |
| O=C(NCCCc1ccccc1)C1CC1 | 22.2 |
| Cc1cc(C)n2ncc(C(=O)NCCc3ccccc3)c2n1 | -13 |
| CCOc1ccc(CCNC(=O)c2cn(C)c3ccc(S(=O)(=O)N4CCOCC4)cc3c2=O)cc1OCC | -41.7 |
| COc1ccc(-c2c(C)n([O-])c3c([n+]2=O)CCCC3)cc1 | -3.69 |
| Cc1ccc(S(=O)(=O)N(C)C)cc1-n1c(SCC(=O)N(C)C)nc2ccccc2c1=O | -3.69 |
| CC(C)(C)C(=O)N1CCN(c2ccc([N+](=O)[O-])cc2Cl)CC1 | -33.2 |
| Nc1ccc(Oc2ccc(Cl)cc2)cc1 | 18.1 |
| NC(=O)c1nsc(C(=O)N(Cc2cccnc2)C(C(=O)NC2CCCCC2)c2ccc(F)cc2)c1N (stereo not shown) | 9.23 |
| O=C(COc1nncc2ccccc12)NCC(F)(F)F | 16.5 |
| Cc1cccc(/C=N/NC(=O)c2ccc(NC(=O)c3ccc(F)cc3)cc2)n1 | -0.123 |
| CCOC(=O)CSc1nc2c(c(-c3ccc(C)o3)c1C#N)CCCC2 | 11.9 |
| COc1cc(OC)c(OC)cc1/C=N/NC(=O)c1cc(-c2cccn2C)n[nH]1 | -23.5 |
| O=C(c1ccco1)N1CCN(C(=O)c2cnn3cccnc23)CC1 | 12.4 |
| CN(Cc1ccc(Cl)c(Cl)c1)C(=O)C1=CC=CN2CCS(=O)(=O)N=C12 | -0.925 |
| CCCn1nc(C(=O)NNC(=O)CCCOc2ccc(C)cc2)c2ccccc2c1=O | -15.3 |
| O=C(NCCc1c[nH]c2ccccc12)c1ccc(S(=O)(=O)NCc2ccco2)cc1 | 3.78 |

| SMILES | hERG current change (%, negative = inhibition) at 10uM [%] |
| --- | --- |
| C=CCNC(=O)c1ccccc1NC(=O)c1ccc(Cl)c(S(=O)(=O)Nc2ccccc2)c1 | -15.5 |
| O=C(c1cc2ccccc2oc1=O)N(Cc1cccs1)Cc1cccs1 | -14.4 |
| COc1ccc(Oc2nc(SC)nc3ccccc23)cc1 | 7.93 |
| N#CC(C#N)=Cc1ccccc1OCc1ccccc1 | 9.08 |
| C/C=C/C(=O)N1CC2(CC(c3cccc(NC(=O)CC)c3)=NO2)C[C@H]1C(N)=O (stereo partly shown) | -5.24 |
| O=C1C(=O)N(c2ccccc2)c2ccccc21 | -30.7 |
| O/N=C1\CCc2cc(Cl)ccc21 | -5.67 |
| Cc1ccc(C)c(NC(=O)C(Sc2nnc(-c3cccs3)o2)c2ccccc2)c1 (stereo not shown) | 15 |
| O=Cc1ccc(O)cc1O | -1.16 |
| CCN(C(=O)c1ccc2c(=O)n3c(nc2c1)CCCCC3)c1ccccc1C | -3.73 |
| O=C1c2ccccc2C(=O)N1CCC(=O)N1CCCc2ccccc21 | -6.39 |
| O=C(NCC1CCCO1)C1CCCN(Cc2cnn(-c3ccccc3)c2-n2cccc2)C1 (stereo not shown) | -11.2 |
| COC(=O)c1cc(NS(=O)(=O)c2ccc(NCc3cccnc3)c(N)c2)cc(C(=O)OC)c1 | -11.5 |
| CCOc1ccc(C(=O)Nc2ccc(N3CCN(C)CC3)cc2)cc1[N+](=O)[O-] | -57.3 |
| Cc1cc(N)n(Cc2ccc(Cl)cc2)n1 | 31.7 |
| CCOC(=O)CC(C(=O)OCC)P(=O)(c1ccccc1)c1ccccc1 (stereo not shown) | 8.37 |
| CSc1ccc(CN2CCN(S(=O)(=O)Cc3ccccc3)CC2)cc1 | 1.28 |
| CN1CCN(C(=S)NC(=O)/C=C/c2cccs2)CC1 | -0.141 |
| CSc1nccc(-c2c(-c3ccc(Cl)cc3)noc2C)n1 | -1.79 |
| CC(C)(C)c1ccc(OCC(=O)NCCN2CCOCC2)cc1.Cl | 1.25 |
| CCOC(=O)C(C)c1c(C(=O)c2ccc(C)nc2)c2ccccc2n1C (stereo not shown) | -0.443 |
| COc1cc(C(=O)OCC(=O)N2CCOCC2)c([N+](=O)[O-])cc1OC | 14.5 |
